# Measured values as given in the supplement of paper PMC4604168 (melanoma cell lines).
# The list shows a part of the results. Most values come without repeats; read them as rough.
# Tested on: COLO800
# Assay: cell count relative to DMSO control; melanoma cells; higher = more viable cells
# Conditions: library dose: standard library concentration; 72 h
# 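Note: cells treated in 1,536-well plates, then fixed and DAPI-stained, with nuclei counted from automated high-throughput microscope images.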
row,SMILES,cell count
1,"OCc1c[nH]c2ccccc12 [Indole-3-carbinol] + C[C@@H]1CCN(C(=O)CC#N)C[C@@H]1N(C)c1ncnc2[nH]ccc12 [CP690550] (first compound 4 µM, partner dose 5 µM)",177%
2,"Clc1ccc(Nc2nnc(Cc3ccncc3)c3ccccc23)cc1 [vatalanib] + COc1cc(Nc2ncc(F)c(Nc3ccc4c(n3)NC(=O)C(C)(C)O4)n2)cc(OC)c1OC [Tamatinib] (first compound 10 µM, partner dose 2 µM)",32.2%
3,"C#Cc1cccc(Nc2ncnc3cc(OCCOC)c(OCCOC)cc23)c1 [erlotinib] + Cc1ccc(NC(=O)c2cccc(N(C)C)c2)cc1NC(=O)c1ccc(O)cc1 [ZM336372] (first compound 4 µM, partner dose 10 µM)",108%
4,"Nc1cccc2c1CN(C1CCC(=O)NC1=O)C2=O (stereo not drawn) [lenalidomide] + CN(C)S(=O)(=O)c1ccc2c(c1)/C(=C/c1cc3c([nH]1)CCCC3)C(=O)N2 [SU6656] (first compound 5 µM, partner dose 2 µM)",49.6%
5,"Cn1c(Nc2ccc(C(F)(F)F)cc2)nc2cc(Oc3ccnc(-c4ncc(C(F)(F)F)[nH]4)c3)ccc21 + CN(NC(=O)CC(=O)NN(C)C(=S)c1ccccc1)C(=S)c1ccccc1 [STA4783] (first compound 0.4 µM, partner dose 0.03 µM)",17.5%
6,"O=C(CCCCCCC(=O)Nc1ccccc1)NO [vorinostat] + CC1(C)NC(=O)N(c2ccc([N+](=O)[O-])c(C(F)(F)F)c2)C1=O [nilutamide] (first compound 0.4 µM, partner dose 5 µM)",89.8%
7,"COCC[n+]1c2c(n(Cc3cnccn3)c1C)C(=O)c1ccccc1C2=O + CC(C)(C)c1cnc(CSc2cnc(NC(=O)C3CCNCC3)s2)o1 [SNS-032] (first compound 0.002 µM, partner dose 0.05 µM)",38.1%
8,"C#Cc1cccc(Nc2ncnc3cc(OCCOC)c(OCCOC)cc23)c1 [erlotinib] + CO[C@@H]1[C@H](N(C)C(=O)c2ccccc2)C[C@H]2O[C@]1(C)n1c3ccccc3c3c4c(c5c6ccccc6n2c5c31)C(=O)NC4 [Midostaurin] (first compound 4 µM, partner dose 0.4 µM)",22.7%
9,"Clc1ccc(Nc2nnc(Cc3ccncc3)c3ccccc23)cc1 [vatalanib] + O=C(Nc1cccc(Cl)c1)Nc1ncc(CCNc2ncnc3ccsc23)s1 [SNS314] (first compound 10 µM, partner dose 0.004 µM)",42.4%
10,"COCC[n+]1c2c(n(Cc3cnccn3)c1C)C(=O)c1ccccc1C2=O + C[C@@H]1CCN(C(=O)CC#N)C[C@@H]1N(C)c1ncnc2[nH]ccc12 [CP690550] (first compound 0.002 µM, partner dose 5 µM)",43.4%
11,"Cn1c(Nc2ccc(C(F)(F)F)cc2)nc2cc(Oc3ccnc(-c4ncc(C(F)(F)F)[nH]4)c3)ccc21 + CC1(C)NC(=O)N(c2ccc([N+](=O)[O-])c(C(F)(F)F)c2)C1=O [nilutamide] (first compound 0.4 µM, partner dose 5 µM)",89%
12,"COCC[n+]1c2c(n(Cc3cnccn3)c1C)C(=O)c1ccccc1C2=O + NC(=O)Nc1cc(-c2cccc(F)c2)sc1C(=O)N[C@H]1CCCNC1 [AZD7762] (first compound 0.002 µM, partner dose 0.1 µM)",24.4%
13,"C#Cc1cccc(Nc2ncnc3cc(OCCOC)c(OCCOC)cc23)c1 [erlotinib] + CN(C)S(=O)(=O)c1ccc2c(c1)/C(=C/c1cc3c([nH]1)CCCC3)C(=O)N2 [SU6656] (first compound 4 µM, partner dose 2 µM)",45.3%
14,"Cn1c(Nc2ccc(C(F)(F)F)cc2)nc2cc(Oc3ccnc(-c4ncc(C(F)(F)F)[nH]4)c3)ccc21 + COc1cc2c(Oc3ccc4[nH]c(C)cc4c3F)ncnc2cc1OCCCN1CCCC1 [cediranib] (first compound 0.4 µM, partner dose 2 µM)",55.4%
15,"Clc1ccc(Nc2nnc(Cc3ccncc3)c3ccccc23)cc1 [vatalanib] + Cc1ccc(NC(=O)c2cccc(N(C)C)c2)cc1NC(=O)c1ccc(O)cc1 [ZM336372] (first compound 10 µM, partner dose 10 µM)",83.6%
16,"Cn1c(Nc2ccc(C(F)(F)F)cc2)nc2cc(Oc3ccnc(-c4ncc(C(F)(F)F)[nH]4)c3)ccc21 + CC(C)(C)c1cnc(CSc2cnc(NC(=O)C3CCNCC3)s2)o1 [SNS-032] (first compound 0.4 µM, partner dose 0.05 µM)",34.7%
17,"C#Cc1cccc(Nc2ncnc3cc(OCCOC)c(OCCOC)cc23)c1 [erlotinib] + COc1cc(Nc2ncc(F)c(Nc3ccc4c(n3)NC(=O)C(C)(C)O4)n2)cc(OC)c1OC [Tamatinib] (first compound 4 µM, partner dose 2 µM)",61.9%

row,SMILES,cell count
1,"Cn1c(Nc2ccc(C(F)(F)F)cc2)nc2cc(Oc3ccnc(-c4ncc(C(F)(F)F)[nH]4)c3)ccc21 + C[C@]1(c2nc3c(C(N)=O)cccc3[nH]2)CCCN1 [Veliparib] (first compound 0.4 µM, partner dose 7 µM)",57.8%
2,"COCC[n+]1c2c(n(Cc3cnccn3)c1C)C(=O)c1ccccc1C2=O + CC1(C)NC(=O)N(c2ccc([N+](=O)[O-])c(C(F)(F)F)c2)C1=O [nilutamide] (first compound 0.002 µM, partner dose 5 µM)",35.6%
3,"O=C(CCCCCCC(=O)Nc1ccccc1)NO [vorinostat] + CO[C@@H]1[C@H](N(C)C(=O)c2ccccc2)C[C@H]2O[C@]1(C)n1c3ccccc3c3c4c(c5c6ccccc6n2c5c31)C(=O)NC4 [Midostaurin] (first compound 0.4 µM, partner dose 0.4 µM)",29.3%
4,"Clc1ccc(Nc2nnc(Cc3ccncc3)c3ccccc23)cc1 [vatalanib] + C=CCn1c(=O)c2cnc(Nc3ccc(N4CCN(C)CC4)cc3)nc2n1-c1cccc(C(C)(C)O)n1 [MK1775] (first compound 10 µM, partner dose 0.1 µM)",47.6%
5,"OCc1c[nH]c2ccccc12 [Indole-3-carbinol] + OCCn1cc(-c2cnc3nnn(Cc4ccc5ncccc5c4)c3n2)cn1 [PF04217903] (first compound 4 µM, partner dose 5 µM)",170%
6,"COCC[n+]1c2c(n(Cc3cnccn3)c1C)C(=O)c1ccccc1C2=O + Cn1nnc2c(C(N)=O)ncn2c1=O [temozolomide] (first compound 0.002 µM, partner dose 10 µM)",31.2%
7,"OCc1c[nH]c2ccccc12 [Indole-3-carbinol] + O=C(O)c1ccc(-c2c[nH]c3ncc(-c4ccccc4)cc23)cc1C1CCCC1 [GSK650394] (first compound 4 µM, partner dose 0.8 µM)",50.9%
8,"COCC[n+]1c2c(n(Cc3cnccn3)c1C)C(=O)c1ccccc1C2=O + O=C(Nc1cccc(Cl)c1)Nc1ncc(CCNc2ncnc3ccsc23)s1 [SNS314] (first compound 0.002 µM, partner dose 0.004 µM)",17.4%
9,"C#Cc1cccc(Nc2ncnc3cc(OCCOC)c(OCCOC)cc23)c1 [erlotinib] + Nc1cccc2c1CN(C1CCC(=O)NC1=O)C2=O [lenalidomide] (first compound 4 µM, partner dose 5 µM)",87.1%
10,"O=C(CCCCCCC(=O)Nc1ccccc1)NO [vorinostat] + OCCn1cc(-c2cnc3nnn(Cc4ccc5ncccc5c4)c3n2)cn1 [PF04217903] (first compound 0.4 µM, partner dose 5 µM)",90.7%
11,"Nc1cccc2c1CN(C1CCC(=O)NC1=O)C2=O (stereo not drawn) [lenalidomide] + OCCn1cc(-c2cnc3nnn(Cc4ccc5ncccc5c4)c3n2)cn1 [PF04217903] (first compound 5 µM, partner dose 5 µM)",89.4%
12,"C#Cc1cccc(Nc2ncnc3cc(OCCOC)c(OCCOC)cc23)c1 [erlotinib] + C=CCn1c(=O)c2cnc(Nc3ccc(N4CCN(C)CC4)cc3)nc2n1-c1cccc(C(C)(C)O)n1 [MK1775] (first compound 4 µM, partner dose 0.1 µM)",58.2%
13,"COCC[n+]1c2c(n(Cc3cnccn3)c1C)C(=O)c1ccccc1C2=O + O=C(O)c1ccc(-c2c[nH]c3ncc(-c4ccccc4)cc23)cc1C1CCCC1 [GSK650394] (first compound 0.002 µM, partner dose 0.8 µM)",37%
14,"OCc1c[nH]c2ccccc12 [Indole-3-carbinol] + NC(=O)Nc1cc(-c2cccc(F)c2)sc1C(=O)N[C@H]1CCCNC1 [AZD7762] (first compound 4 µM, partner dose 0.1 µM)",64.7%
15,"Clc1ccc(Nc2nnc(Cc3ccncc3)c3ccccc23)cc1 [vatalanib] + Cn1nnc2c(C(N)=O)ncn2c1=O [temozolomide] (first compound 10 µM, partner dose 10 µM)",62.6%
16,"Nc1cccc2c1CN(C1CCC(=O)NC1=O)C2=O (stereo not drawn) [lenalidomide] + C[C@]1(c2nc3c(C(N)=O)cccc3[nH]2)CCCN1 [Veliparib] (first compound 5 µM, partner dose 7 µM)",63.8%
